# In PubChem BioAssay AID463173 (ICCB-Longwood Screening Facility, Harvard Medical School, 2010):
# Hit rate of the full screen: of about 52,000 compounds, about 1,700 (3.3%) were called active. Cut-off read from the data, not from the text of the source: active = survival mostly below about 52% (no sharp cut-off); inactive = mostly above about 56%. The list shows a part of the results.
# Tested on: Wild type
# Test: growth inhibition of S. aureus wild type versus tarO mutant, primary screen, teichoic acid synthesis inhibitors, RN4220, OD600 (AID 463173)
# Details: S. aureus RN4220 wild type/DeltatarO growth, OD600, 18 h, stronger effect = lower value, screened at 18.75 µg/mL (by protocol)
row,SMILES,survival
1,O=C(CSc1nc(-c2ccc(F)cc2)cc(C(F)(F)F)n1)NCCc1ccccc1,inactive: 89%
2,COc1ccc(NC(=O)c2ccco2)cc1NC(=O)COc1ccc(Cl)cc1C,inactive: 85%
3,COc1cccc(N2CCN(C(=O)c3ccc(NC(=O)c4nsc5ccccc45)cc3)CC2)c1,inactive: 57%
4,CCN(CC)CCNC(=O)c1sc2ncccc2c1-n1cccc1,inactive: 99%
5,Cc1ccc(C(=O)NCc2ccc(F)cc2)cc1NC(=O)c1nsc2ccccc12,inactive: 78%
6,Cn1cc(S(=O)(=O)c2ccccc2)c(=O)c2cc(F)c(N3CCCCCC3)cc21,inactive: 143%
7,Cc1cc(C)cc(-n2c(SCC(=O)Nc3ccc4c(c3)OCCO4)nc3c([nH]c4ccccc43)c2=O)c1,inactive: 131%
8,CC1=C(c2ccc(C)c(C)c2)S(=O)(=O)N=C1N1CCC(C(=O)NC(C)Cc2ccco2)CC1 (stereo unspecified),inactive: 75%
9,COc1ccc(CNC(=O)CCc2nc(-c3ccc(C)cc3)no2)c(OC)c1,inactive: 120%
10,O=C(Nc1ccc2nc(SCC(=O)N3CCc4ccccc43)sc2c1)c1ccccc1F,inactive: 129%
11,Cn1c(=O)n(C)c2cc(N3CCCCC3)c(NC(=O)c3ccc(C(C)(C)C)cc3)cc21,inactive: 86%
12,CCCN1C2CCCC1CC(NC(=O)Nc1ccc(SC)cc1)C2 (stereo unspecified),inactive: 113%
13,COc1ccc(C)cc1-n1cnc2cc(C(=O)NC3CCCC3)ccc21,inactive: 123%
14,COc1cc(C(=O)Nc2nonc2-c2ccc(C)c(C)c2)cc(OC)c1OC,inactive: 88%
15,Cc1ccc(NC(=O)c2ccc(NC(=O)N3CCSc4ncccc43)cc2)c(C)c1,inactive: 82%
16,Cc1cc(C)n2c(SCC(=O)N(C)C3CCCCC3)nnc2n1,inactive: 101%
17,Cc1cc(C(=O)Nc2c(C)nc3ccccn3c2=O)ccc1[N+](=O)[O-],inactive: 101%
18,CCOc1ccc(/C=C/c2nc(C#N)c(NCCc3ccccc3)o2)cc1,inactive: 86%
19,O=C(CSc1nc2c([nH]c3ccccc32)c(=O)n1-c1ccc(Cl)cc1)NCC1CCCO1 (stereo unspecified),inactive: 70%
20,Cc1ccccc1Nc1c(-c2cccs2)nc2cccc(C)n12,inactive: 45%
21,CC1Cc2cc(S(=O)(=O)N(Cc3ccccc3)C(C)C)ccc2N1C(=O)C1CCC1 (stereo unspecified),inactive: 102%
22,COc1ccccc1NC(=O)Cn1c(=O)n(CCCCCC(=O)NCc2ccccc2)c(=O)c2sccc21,inactive: 67%
23,CCOC(=O)c1c(C)oc2nc(C)nc(NCc3ccccc3OC)c12,inactive: 70%

row,SMILES,survival
1,CC(=O)Nc1ccc(S(=O)(=O)NC2(C(F)(F)F)NC(=O)N(CCc3ccc(F)cc3)C2=O)cc1 (stereo unspecified),inactive: 137%
2,COc1cccc(C(=O)Nc2ccccc2-c2nnc(-c3cccc(OC)c3)o2)c1,inactive: 64%
3,CCOc1cc(CNC(=O)Cn2c(-c3cccs3)cc3cc(F)ccc32)ccc1OC,inactive: 72%
4,O=C1NC(=Nc2ccccc2)S/C1=C\c1ccc(C(=O)O)cc1,inactive: 113%
5,Cc1ccc(Cl)cc1NC(=O)CCC(=O)NCc1ccco1,inactive: 113%
6,Cc1ccc(-n2c(SCC(N)=O)nc3c(oc4ccccc43)c2=O)cc1C,inactive: 107%
7,CCOC(=O)Cc1cc(=O)n2[nH]c(-c3ccccc3)cc2n1,inactive: 118%
8,COC(=O)C1=C(c2ccccc2)c2ccccc2S(=O)(=O)N1CC(=O)Nc1ccccc1Cl,inactive: 61%
9,CCOC(=O)Cc1cc(=O)n2[nH]cc(C#N)c2n1,inactive: 128%
10,COC(=O)C(C)Sc1cc(C)c2ccccc2n1 (stereo unspecified),inactive: 108%
11,CCOCCCn1c(=N)c(C(=O)NCC2CCCO2)cc2c(=O)n3cccc(C)c3nc21 (stereo unspecified),inactive: 79%
12,Cc1ccc(C)c(N2CCN(Cc3csc(C)c3)CC2)c1,inactive: 107%
13,Cc1ccc(C)c(NC(=O)Cn2c(=O)n(Cc3ccccc3)c(=O)c3oc4ccccc4c32)c1,inactive: 72%
14,CCCN(CCC)CCCNC(=O)Cn1cnc2sc(C)c(S(=O)(=O)N3CCC(C)CC3)c2c1=O,inactive: 75%
15,O=C(Nc1cccc(F)c1)c1ccc(-c2ccccc2)s1,inactive: 98%
16,O=C(c1cccs1)N1CCCc2cc(NS(=O)(=O)c3ccc(F)cc3F)ccc21,inactive: 71%
17,COC(=O)C1CCN(S(=O)(=O)c2cc3c4c(c2)CC(=O)N4CCC3)CC1,inactive: 32%
18,Cc1cccc2cc(CN(Cc3ccco3)Cc3nnnn3CCc3ccccc3)c(=O)[nH]c12,inactive: 117%
19,Cc1cccc(NS(=O)(=O)c2ccc3c(c2)CCN3C(=O)C2CCC2)c1,inactive: 69%
20,Cc1ccc(S(=O)(=O)c2cn(Cc3ccccc3Cl)c3ccc(F)cc3c2=O)cc1,inactive: 98%
21,COc1ccc2c(c1)NC(c1cccnc1)=NC(c1ccc(F)cc1)=N2,inactive: 90%
22,Cn1c(=O)c2c(nc(NCCN3CCOCC3)n2C)n(C)c1=O,inactive: 109%
23,O=c1ccccn1Cc1cn2ccccc2n1,inactive: 95%

row,SMILES,survival
1,COc1ccc(Br)cc1CNC(=O)c1ccc2c(c1)N(Cc1ccc(C)cc1)CCS2,inactive: 87%
2,Cc1ccc(CN2C(=O)c3ccccc3Sc3ccc(C(=O)OCc4ccco4)cc32)cc1,inactive: 73%
3,CC(C)(C)N(Cc1ccccc1)C(=O)CSc1nnc(CNc2ccc(F)cc2)o1,inactive: 114%
4,NS(=O)(=O)c1ccc2nc(NC(=O)COc3ccccc3)sc2c1,inactive: 88%
5,COCCNC(=O)CSc1nc(-c2ccccc2C)nc2c1c(=O)n(C)c(=O)n2C,inactive: 77%
6,COc1ccc(CCC(=O)NCCc2csc(-c3ccc(Cl)cc3)n2)cc1,inactive: 126%
7,Cc1ccc2cccc(NC(=O)c3ccc(-c4cccc(Cl)c4)o3)c2n1,inactive: 66%
8,Cc1ccc(NC(=O)Cn2c(=O)oc3cc(S(=O)(=O)N4CCCCCC4)ccc32)cc1Cl,inactive: 92%
9,CC(C(=O)NC1CC1)N1CCC(N2CCCCC2)CC1 (stereo unspecified),inactive: 96%
10,CC(C)C(NS(=O)(=O)c1ccc2c(c1)oc(=O)n2C)C(=O)NCCc1ccc(Cl)cc1 (stereo unspecified),inactive: 90%
11,CCOc1ccc(Nc2c(S(=O)(=O)c3ccccc3)cnc3ccccc23)cc1,inactive: 38%
12,CN(Cc1ccco1)S(=O)(=O)c1nnc(NC(=O)c2cccc(Cl)c2)s1,inactive: 18%
13,Cc1ccc(NC(=O)c2nc(S(C)(=O)=O)ncc2N(Cc2ccco2)Cc2ccco2)cc1C,inactive: 92%
14,CCCN(CCC)C(=O)c1cc2c(=O)n3cccc(C)c3nc2n1C,inactive: 78%
15,O=C1c2ccccc2S(=O)(=O)c2cc(-c3nn[nH]n3)ccc21,inactive: 99%
16,Cc1ccc(NC(=O)c2c(C)oc3ccc(O)c(CN4CCCCC4)c23)c(C)c1,inactive: 92%
17,Cc1ccc2nc(C3CCCN(C(=O)NCc4ccccc4)C3)[nH]c2c1 (stereo unspecified),inactive: 113%
18,C(=N\c1nncs1)/Nc1nncs1,inactive: 104%
19,Cc1ccc(-c2nnc(Nc3ccc(S(N)(=O)=O)cc3)c3ccccc23)cc1S(=O)(=O)N1CCCCC1,inactive: 109%
20,CC(=O)NC1N=C(C)N(c2ccccc2)C1=O (stereo unspecified),inactive: 101%
21,CCC(=O)N1CCc2cc(Br)cc(S(=O)(=O)CCC(=O)N(CC)Cc3ccccc3)c21,inactive: 66%
22,CN1C(=O)/C(=C/c2cccs2)SC1=S,inactive: 110%
23,Cc1ccc(NC(=O)CN2C(=O)C3(SCC(=O)N3c3ccc(F)c(F)c3)c3ccccc32)c(C)c1 (stereo unspecified),inactive: 69%

row,SMILES,survival
1,CC1=NN(C(=O)c2ccccc2)C(C)(O)C1(C)C (stereo unspecified),inactive: 103%
2,CCOCCCNC(=O)C(c1ccc(Cl)cc1)N(Cc1cccs1)C(=O)c1ccc(NC(C)=O)cc1 (stereo unspecified),inactive: 99%
3,CC(C)(Oc1ccc(Cl)cc1)C(=O)Nc1nc2ccc(S(C)(=O)=O)cc2s1,inactive: 69%
4,CN(C)c1ccc(C(CNC(=O)c2c(F)cccc2Cl)N2CCOCC2)cc1 (stereo unspecified),inactive: 19%
5,CN1/C(=N\O)c2cccc3cccc1c23,inactive: 128%
6,COc1ccc(Cl)cc1NC(=O)NCC1CCN(Cc2ccccc2F)CC1,inactive: 76%
7,CC(=O)N1CCc2cc(CNS(=O)(=O)c3ccc(Cl)s3)ccc21,inactive: 65%
8,COc1ccc(-n2c(=O)c3c4c(sc3n3c(SCCC(C)C)nnc23)COC(C(C)C)C4)cc1 (stereo unspecified),inactive: 68%
9,COc1cc(OC)cc(C(=O)Nc2ccc3oc(-c4cccc5c(Br)cccc45)nc3c2)c1,inactive: 78%
10,CN1C(=O)C2(SCC(=O)N2c2ccc(F)cc2)c2ccccc21 (stereo unspecified),inactive: 92%
11,CCOc1ccc(OCC)c(NS(=O)(=O)c2cc(-c3onc(C)c3C)ccc2OC)c1,inactive: 51%
12,CCN1CCN(CCCNC(=O)c2ccc3nc(Cc4ccccc4)oc3c2)CC1,inactive: 79%
13,CCOc1ccc(N2C(=O)CC(N(CCc3ccccc3)C(C)=O)C2=O)cc1 (stereo unspecified),inactive: 95%
14,O=C(CCSc1nc(-c2ccco2)cc(C(F)(F)F)n1)N1CCCC1,inactive: 109%
15,O=C(CO)N/N=C\c1c(F)cccc1Cl,inactive: 124%
16,COc1ccc(N2CCN(C(=O)c3cc(S(=O)(=O)N4CCC(C)CC4)cn3C)CC2)cc1,inactive: 63%
17,Cc1cccc(N2CCN(c3nc4ccc(C)cc4n4cnnc34)CC2C)c1 (stereo unspecified),inactive: 81%
18,COc1ccc(-n2ccnc(NCc3ccc(C)cc3)c2=O)cc1OC,inactive: 87%
19,O=C(NCC(c1ccc2c(c1)OCO2)N1CCOCC1)c1c(F)cccc1F (stereo unspecified),inactive: 69%
20,CCN(C(=O)C1CCN(c2ncnc3c2nc2n3CCCCC2)CC1)c1cccc(Cl)c1,inactive: 63%
21,Cc1cccc(NC(=O)CCNS(=O)(=O)c2cccc3nsnc23)c1C,inactive: 67%
22,COc1ccc(N(CC(=O)N2CCN(c3ccccc3F)CC2)S(=O)(=O)c2c(C)n[nH]c2C)cc1,inactive: 124%
